Laboratory results taken from PubChem BioAssay AID1508642 (National Center for Advancing Translational Sciences (NCATS), 2021).
Hit rate of the full screen: of about 43,000 compounds, about 200 (0.47%) were called active. This list was built around the results that the source calls inconclusive (neither active nor inactive); the mix of calls is not that of the screen. Calls come from the whole dose curve; as a rule, active = well fitted cell-killing curve with a large enough effect; inconclusive = small, poorly fitted or top-dose-only effect, or effect the other way; inactive = flat fitted curve, though single readings scatter. Potencies of inconclusive entries are doubtful fits and often do not repeat.
% is set by controls: 0 for no effect and ±100 for the full control effect; potency is the fitted concentration of half-maximal effect; tags give direction and shape of the fitted curve.

Experiment: Cell viability qHTS assay in S16 Pmp22-F2sN cells; note: nearly all actives have a fitted effect of over 65% in size
Details: S16 Pmp22-F2sN Schwann cells (luciferase reporters placed in the Pmp22 gene) viability, CellTiter-Glo, 24 h; activity change, negative = cytotoxicity: at 57.5 µM (top of the series)
Procedure, shortened: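 Rat S16 Schwann reporter line, 24 h treatment with library compounds delivered at 23 nL per well. Cell viability by CellTiter-Glo luminescence.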
With `CCOc1cc(C2c3c(-c4ccccc4O)n[nH]c3C(=O)N2CCc2ccccc2)ccc1O` (stereo not drawn) the “activity change, negative = cytotoxicity” value was inactive: -23.6%.
In the case of `COc1ccccc1N1CCN(C(CNC(=O)C(=O)NCCc2ccccc2)c2cccnc2)CC1` (stereo not drawn), the Potency is reported as inconclusive: 39.8 µM [cytotoxic, single point].
With `CC(C)Cn1c(/C=C/c2ccc(F)cc2)nc2ccccc21` the Potency was inconclusive: 39.8 µM [cytotoxic, single point].
With `COc1ccccc1NC(=O)C1=C(C)Nc2nc(SCc3cc(C)ccc3C)nn2C1c1ccccc1` (stereo not drawn) the Potency was active: 10 µM.
With `CCn1c(C)c(C)c2cc(C(=O)NCCc3ccc(C)cc3)ccc21` the “activity change, negative = cytotoxicity” value was inactive: 8.25%.
In the case of `CCN1CCC(N(Cc2ccc3c(c2)OCO3)C(=O)Nc2ccc(Br)c(C)c2)CC1`, the Potency is reported as inconclusive: 39.8 µM [cytotoxic, single point].
With `CCCCOCc1cc(CN2CCN(c3cccc(Cl)c3)CC2)c(O)c2ncccc12` the Potency was inconclusive: 6.31 µM [cytotoxic, single point].
With `COc1ccc(-n2c(-c3ccco3)nc3c(cnn3-c3ccc(C)cc3)c2=O)cc1` the Potency was inconclusive: 1.26 µM [rising, full curve].
For `COc1cccc(Nc2nc(-c3ccccc3)c3cc(C)ccc3n2)c1`, the Potency was inconclusive: 1.26 µM [rising, partial curve, poor fit].
In the case of `CCN(CCCNC(=O)c1cc2cc3ccc(OC)cc3nc2s1)c1ccccc1`, the Potency is reported as inconclusive: 39.8 µM [cytotoxic, partial curve, poor fit].
In the case of `Cc1ccc(Cl)cc1N1CCN(C(=O)c2ccc(C)c(-n3c(C)nc4cccnc43)c2)CC1`, the Potency is reported as inconclusive: 28.2 µM [cytotoxic, single point].
For `CCCN1C(C(=O)c2ccccc2)=C(OC(=O)C(C)(C)C)c2ccccc2S1(=O)=O`, the Potency was inconclusive: 39.8 µM [cytotoxic, single point].
For `COc1ccc(Br)cc1CC1C(=O)Nc2ccccc21` (stereo not drawn), the “activity change, negative = cytotoxicity” value was inactive: -19.4%.
With `Cc1ccc(-n2ncc(C(=O)N3CCN(c4cccc(C)c4C)CC3)c2C2CCNCC2)c(C)c1` the Potency was inconclusive: 39.8 µM [cytotoxic, single point].
For `CCCN1CCCc2cc(CN(CCCN3CCOCC3)C(=O)Nc3ccc(OCC)cc3)ccc21`, the “activity change, negative = cytotoxicity” value was inactive: -3.01%.
With `Cc1cccc(Cn2nnc3c(=O)[nH]c(C4CCCN(C(=O)c5ccc(C(C)(C)C)cc5)C4)nc32)c1` (stereo not drawn) the Potency was inconclusive: 39.8 µM [cytotoxic, single point].
For `CN(C(=O)Cn1c(=O)n(Cc2ccc(C(=O)NCc3ccc4c(c3)OCO4)cc2)c(=O)c2ccccc21)c1ccccc1`, the Potency was inconclusive: 17.8 µM [rising, single point].
For `Cc1ccccc1Cc1c(C)nc2c(-c3ccccc3)c(C)[nH]n2c1=O`, the Potency was inconclusive: 25.1 µM [cytotoxic, single point].
With `CC(=O)c1cccc(Nc2cc(C)nc3nc(-c4ccccc4C)nn23)c1` the Potency was inconclusive: 28.2 µM [cytotoxic, single point].
In the case of `COc1ccc(CN2CCN(c3ncnc4sc5c(c34)CCCC5)CC2)cc1F`, the Potency is reported as inconclusive: 31.6 µM [cytotoxic, single point].
For `COc1cc(C2Nc3ccccc3-c3nnc(SCc4ccc(Cl)cc4)nc3O2)ccc1OCC(=O)O` (stereo not drawn), the Potency was inconclusive: 39.8 µM [cytotoxic, single point].
With `COc1ccc2c(c1)Cc1sc(NC(=O)c3cccc(Cl)c3)nc1-2` the Potency was inconclusive: 31.6 µM [cytotoxic, single point].
In the case of `CC(=O)Nc1nonc1-c1nnc(SCc2cccc(Br)c2)n1C`, the Potency is reported as inconclusive: 39.8 µM [cytotoxic, partial curve, poor fit].
For `O=c1cc(N2CCN(c3ccc(F)cc3)CC2)[nH]c(=O)n1-c1cccc(Br)c1`, the Potency was inconclusive: 28.2 µM [cytotoxic, single point].
In the case of `CCC(C)n1c(=N)c(C(=O)NC2CCCCC2)cc2c(=O)n3cc(C)ccc3nc21` (stereo not drawn), the Potency is reported as inconclusive: 31.6 µM [cytotoxic, single point].
For `Cc1ccnc(NC(c2cc(C)ccc2O)c2ccc3cccnc3c2O)c1` (stereo not drawn), the Potency was inconclusive: 31.6 µM [cytotoxic, single point].
In the case of `COc1ccc(S(=O)(=O)N(C(=O)c2ccncc2)c2ccc3oc(C)c(C(C)=O)c3c2)cc1`, the Potency is reported as inconclusive: 15.8 µM [cytotoxic, partial curve].
For `Cc1ccc(CNC(=O)C2CCN(S(=O)(=O)c3c(C)noc3/C=C/c3ccccc3F)CC2)o1`, the Potency was inconclusive: 0.355 µM [rising, full curve, poor fit].
With `CC(C)c1ccc(NC(=O)CSC2=Nc3ccccc3C3=NC(CC(=O)NCCc4ccccc4)C(=O)N23)cc1` (stereo not drawn) the “activity change, negative = cytotoxicity” value was inactive: -3.55%.
In the case of `COc1ccc(Cl)cc1NC(=O)c1c(NCc2cccs2)sc2c1CCC(C)C2` (stereo not drawn), the “activity change, negative = cytotoxicity” value is reported as inactive: 1.86%.
With `CCCc1noc(-c2ccc(NCc3ccccc3OC)c([N+](=O)[O-])c2)n1` the Potency was inconclusive: 25.1 µM [cytotoxic, partial curve, poor fit].
In the case of `Cc1ccccc1C(=O)Nc1ccc2nc(SCC(=O)N(C)c3ccccc3)sc2c1`, the Potency is reported as inconclusive: 28.2 µM [cytotoxic, single point].
In the case of `Cc1cccc(Cn2c(SCc3ccc(C(=O)NCc4cccs4)cc3)nc3ccncc32)c1`, the Potency is reported as inconclusive: 39.8 µM [cytotoxic, single point].
In the case of `COc1ccc(N(C(=O)c2cc(OC)c(OC)c(OC)c2)S(=O)(=O)c2ccc(C)cc2)cc1`, the Potency is reported as inconclusive: 35.5 µM [cytotoxic, single point].
In the case of `Nc1nonc1-c1nc2ccccc2n1CC(=O)Nc1ccc(F)cc1`, the Potency is reported as inconclusive: 25.1 µM [cytotoxic, partial curve, poor fit].
With `Cc1ccc(Cl)cc1N1CCN(C(=O)c2cn(C)c3ccc(S(=O)(=O)N4CCCC4)cc3c2=O)CC1` the Potency was inconclusive: 35.5 µM [cytotoxic, partial curve, poor fit].
In the case of `COc1ccc(CNC(=O)CN(C)S(=O)(=O)c2ccc3[nH]c4c(c3c2)CCCC4)cc1`, the Potency is reported as inconclusive: 31.6 µM [cytotoxic, single point].
With `CC(C)c1ccc(NC(=O)c2cc(S(=O)(=O)NCCC3=CCCCC3)ccc2F)cc1` the Potency was inconclusive: 39.8 µM [cytotoxic, single point].
